Like-named read-outs stand apart in the source and are kept apart here. Each block holds one binder with its values, some of them ahead of it.
Tests used:
[1] = target: T1, human Siglec-15, full length, expressed on cells (human, UniProt Q6ZMC9 20-328); assay: flow cytometry, THP-1 cells overexpressing human Siglec-15, ADC titrated, anti-human IgG-PE, gMFI
T1 construct: also called hS15; MOLM-13 Siglec-15 expressing cells
T1 sequence: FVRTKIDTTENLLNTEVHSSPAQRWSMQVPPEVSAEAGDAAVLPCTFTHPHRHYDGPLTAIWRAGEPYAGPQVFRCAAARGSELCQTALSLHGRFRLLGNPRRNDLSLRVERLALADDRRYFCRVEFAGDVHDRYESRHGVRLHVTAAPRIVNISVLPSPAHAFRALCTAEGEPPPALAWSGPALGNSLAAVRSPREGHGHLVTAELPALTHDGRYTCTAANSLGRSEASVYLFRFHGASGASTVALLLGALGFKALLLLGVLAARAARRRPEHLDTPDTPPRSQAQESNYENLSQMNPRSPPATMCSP

[2] = target: T1, human Siglec-15, full length, expressed …; assay: as above; remark: listed apart in the source

binding result [1]: binds
B1: ZLA-1243-A01-MMAE (other)
VH: [sequence of about 100 residues not given]DNEWTPGSFFDYWGQGTLVTVSS
VL: QSALTQPASVSGSPGQSITISCTGTSSDVGGYNYVSWYQQHPGKAPKLMIYDVSNRPSGVSNRFSGSKSGNTASLTISGLQAEDEADYYCSSYTSSSTRVFGGGTKVTVL
modifications: vc-MMAE payload linker conjugated to the antibody; residue not stated

binding result [2]: binds
B2: ZLA-1243-A01-Exatecan (other)
VH: [sequence of about 100 residues not given]DNEWTPGSFFDYWGQGTLVTVSS
VL: B1 VL
modifications: Antibody-drug conjugate: exatecan payload joined through an MC-GGFG linker. The attachment residues are not stated and the letters cannot carry the payload.
notes: member of group m29
